A collection of fitness landscapes (doi:10.1016/j.celrep.2020.107928)
In all, about 81,000 sequences were measured (“one-hybrid fitness for binding parS DNA”: median about -0.17, highest 2% from about 0.51 on). Some of the results follow.

B1: Caulobacter ParB omega fusion; a variant is named by its letters at X, in order, B8GW30 (parent)
chain: MESVVVGEPGMSEGRRGLGRGLSALLGEVDAAPAQAPGEQLGGSREAPIEILQRNPDQPRRTFREEDLEDLSNSIREKGVLQPILVRPSPDTAGEYQIVAGERAWRAAQRAGLKTVPIMVRELDDLAVLEIGIIENVQRADLNVLEEALSYKVLMEKFERTQENIAQTIGKSXSHVANXMRLLXLPDEVQSYLVSGELTAXHARAIAAAADPVALAKQIIEGGLSVRETEALARKAPNLSAGKSKGGRPPRVKDTDTQALESDLSSVLGLDVSIDHRGSTGTLTITYATLEQLDDLCNRLTRGI

Variants of: B1
Assay: one-hybrid fitness for binding parS DNA (scaled: cognate 1, non-cognate 0); higher = stronger binding
Settings: with parS DNA site
Outline: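 Fitness is the rescaled log change in variant-to-wild-type read ratio, measured by Illumina sequencing of plasmids before and after bacterial one-hybrid selection. The scale puts cognate at 1 and non-cognate at 0. Selection of Caulobacter ParB libraries, four specificity codons randomised, took place in E. coli USO with a HIS3 reporter, site 19 bp from the promoter, over 48 hours at 37°C on M9-minus-histidine with 0.1 mM IPTG and 5 mM 3-AT.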

RHAD and GIHG cannot be ordered by “one-hybrid fitness for binding parS DNA” value: at most 0.2 for the first, at most 0.2 for the second.

GIPC and PLSN cannot be ordered by “one-hybrid fitness for binding parS DNA” value: at most 0.2 for the first, at most 0.2 for the second.

QGSF and CSVL cannot be ordered by “one-hybrid fitness for binding parS DNA” value: at most 0.2 for the first, at most 0.2 for the second.

KTIE and YCAS cannot be ordered by “one-hybrid fitness for binding parS DNA” value: at most 0.2 for the first, at most 0.2 for the second.

QRYI and HRAF cannot be ordered by “one-hybrid fitness for binding parS DNA” value: at most 0.2 for the first, at most 0.2 for the second.

QIGT and YLMH cannot be ordered by “one-hybrid fitness for binding parS DNA” value: at most 0.2 for the first, at most 0.2 for the second.

GDDS and YANG cannot be ordered by “one-hybrid fitness for binding parS DNA” value: at most 0.2 for the first, at most 0.2 for the second.

FHEY and PKLC cannot be ordered by “one-hybrid fitness for binding parS DNA” value: at most 0.2 for the first, at most 0.2 for the second.

VEKT and YDAS cannot be ordered by “one-hybrid fitness for binding parS DNA” value: at most 0.2 for the first, at most 0.2 for the second.

GQVT and ARWA cannot be ordered by “one-hybrid fitness for binding parS DNA” value: at most 0.2 for the first, at most 0.2 for the second.

MQPS and RMAV cannot be ordered by “one-hybrid fitness for binding parS DNA” value: at most 0.2 for the first, at most 0.2 for the second.

RAPY and NRLH cannot be ordered by “one-hybrid fitness for binding parS DNA” value: at most 0.2 for the first, at most 0.2 for the second.

GYRD and KTKF cannot be ordered by “one-hybrid fitness for binding parS DNA” value: at most 0.2 for the first, at most 0.2 for the second.

QERS and REMM cannot be ordered by “one-hybrid fitness for binding parS DNA” value: at most 0.2 for the first, at most 0.2 for the second.

NLFL and LQDE cannot be ordered by “one-hybrid fitness for binding parS DNA” value: at most 0.2 for the first, at most 0.2 for the second.

QYGM and LLSE cannot be ordered by “one-hybrid fitness for binding parS DNA” value: at most 0.2 for the first, at most 0.2 for the second.

SCPS and YQYT cannot be ordered by “one-hybrid fitness for binding parS DNA” value: at most 0.2 for the first, at most 0.2 for the second.

YPSC and YFWG cannot be ordered by “one-hybrid fitness for binding parS DNA” value: at most 0.2 for the first, at most 0.2 for the second.

AFWA and SVMS cannot be ordered by “one-hybrid fitness for binding parS DNA” value: at most 0.2 for the first, at most 0.2 for the second.

HLYC and ASMW cannot be ordered by “one-hybrid fitness for binding parS DNA” value: at most 0.2 for the first, at most 0.2 for the second.

HHIQ and NPCR cannot be ordered by “one-hybrid fitness for binding parS DNA” value: at most 0.2 for the first, at most 0.2 for the second.

DICG and TDSQ cannot be ordered by “one-hybrid fitness for binding parS DNA” value: at most 0.2 for the first, at most 0.2 for the second.

ITKR and YCQV cannot be ordered by “one-hybrid fitness for binding parS DNA” value: at most 0.2 for the first, at most 0.2 for the second.

PWST and VLNS cannot be ordered by “one-hybrid fitness for binding parS DNA” value: at most 0.2 for the first, at most 0.2 for the second.

GSMR and TDVD cannot be ordered by “one-hybrid fitness for binding parS DNA” value: at most 0.2 for the first, at most 0.2 for the second.

TQPV and QQMG cannot be ordered by “one-hybrid fitness for binding parS DNA” value: at most 0.2 for the first, at most 0.2 for the second.

KTKC and QLPD cannot be ordered by “one-hybrid fitness for binding parS DNA” value: at most 0.2 for the first, at most 0.2 for the second.

EWKS and QPNA cannot be ordered by “one-hybrid fitness for binding parS DNA” value: at most 0.2 for the first, at most 0.2 for the second.

FLPL and WEYT cannot be ordered by “one-hybrid fitness for binding parS DNA” value: at most 0.2 for the first, at most 0.2 for the second.

SKNL and PVPI cannot be ordered by “one-hybrid fitness for binding parS DNA” value: at most 0.2 for the first, at most 0.2 for the second.

QYMT and RRNQ cannot be ordered by “one-hybrid fitness for binding parS DNA” value: at most 0.2 for the first, at most 0.2 for the second.

PFNS and RFCP cannot be ordered by “one-hybrid fitness for binding parS DNA” value: at most 0.2 for the first, at most 0.2 for the second.

First: DPLK
Second: RMAH
The “one-hybrid fitness for binding parS DNA” value of the first is lower: at most 0.2 for the first, 0.282 for the second.

QFKR and EHVC cannot be ordered by “one-hybrid fitness for binding parS DNA” value: at most 0.2 for the first, at most 0.2 for the second.

GCAR and KRKW cannot be ordered by “one-hybrid fitness for binding parS DNA” value: at most 0.2 for the first, at most 0.2 for the second.

HRSI and SVST cannot be ordered by “one-hybrid fitness for binding parS DNA” value: at most 0.2 for the first, at most 0.2 for the second.

PQSC and HVPR cannot be ordered by “one-hybrid fitness for binding parS DNA” value: at most 0.2 for the first, at most 0.2 for the second.

TSDL and YHHT cannot be ordered by “one-hybrid fitness for binding parS DNA” value: at most 0.2 for the first, at most 0.2 for the second.

IALS and TQKC cannot be ordered by “one-hybrid fitness for binding parS DNA” value: at most 0.2 for the first, at most 0.2 for the second.

KSTL and GYGY cannot be ordered by “one-hybrid fitness for binding parS DNA” value: at most 0.2 for the first, at most 0.2 for the second.

KPPM and SQGA cannot be ordered by “one-hybrid fitness for binding parS DNA” value: at most 0.2 for the first, at most 0.2 for the second.

QWTY and YILS cannot be ordered by “one-hybrid fitness for binding parS DNA” value: at most 0.2 for the first, at most 0.2 for the second.

TLHT and VIWG cannot be ordered by “one-hybrid fitness for binding parS DNA” value: at most 0.2 for the first, at most 0.2 for the second.

PQMW and GPGN cannot be ordered by “one-hybrid fitness for binding parS DNA” value: at most 0.2 for the first, at most 0.2 for the second.

Compared with NIDM, RLRM is higher in “one-hybrid fitness for binding parS DNA” value: at most 0.2 for the first, 0.376 for the second.

HWPE and SVVF cannot be ordered by “one-hybrid fitness for binding parS DNA” value: at most 0.2 for the first, at most 0.2 for the second.

RNQV and CSHP cannot be ordered by “one-hybrid fitness for binding parS DNA” value: at most 0.2 for the first, at most 0.2 for the second.

Going from PMRG to RKMY, the “one-hybrid fitness for binding parS DNA” value rises from at most 0.2 to 0.386.

Compared with DYYM, RKLT is higher in “one-hybrid fitness for binding parS DNA” value: at most 0.2 for the first, 0.856 for the second.

AFMR and KCMR cannot be ordered by “one-hybrid fitness for binding parS DNA” value: at most 0.2 for the first, at most 0.2 for the second.

DCQR and CELM cannot be ordered by “one-hybrid fitness for binding parS DNA” value: at most 0.2 for the first, at most 0.2 for the second.

GNDD and SLPM cannot be ordered by “one-hybrid fitness for binding parS DNA” value: at most 0.2 for the first, at most 0.2 for the second.

QPGS and IMEV cannot be ordered by “one-hybrid fitness for binding parS DNA” value: at most 0.2 for the first, at most 0.2 for the second.

First: RRAS
Second: GTHP
The “one-hybrid fitness for binding parS DNA” value of the first is higher: 0.652 for the first, at most 0.2 for the second.

LHLM and RSPK cannot be ordered by “one-hybrid fitness for binding parS DNA” value: at most 0.2 for the first, at most 0.2 for the second.

Compared with RMNF, TMSL is lower in “one-hybrid fitness for binding parS DNA” value: 0.237 for the first, at most 0.2 for the second.

ASIL and KLNR cannot be ordered by “one-hybrid fitness for binding parS DNA” value: at most 0.2 for the first, at most 0.2 for the second.

RDPS and MDEC cannot be ordered by “one-hybrid fitness for binding parS DNA” value: at most 0.2 for the first, at most 0.2 for the second.

TTFC and TMQR cannot be ordered by “one-hybrid fitness for binding parS DNA” value: at most 0.2 for the first, at most 0.2 for the second.

PDLM and FDLM cannot be ordered by “one-hybrid fitness for binding parS DNA” value: at most 0.2 for the first, at most 0.2 for the second.

DART and HGLF cannot be ordered by “one-hybrid fitness for binding parS DNA” value: at most 0.2 for the first, at most 0.2 for the second.

QVKF and CKHT cannot be ordered by “one-hybrid fitness for binding parS DNA” value: at most 0.2 for the first, at most 0.2 for the second.

ISYG and AQMG cannot be ordered by “one-hybrid fitness for binding parS DNA” value: at most 0.2 for the first, at most 0.2 for the second.

IYRY and TDLC cannot be ordered by “one-hybrid fitness for binding parS DNA” value: at most 0.2 for the first, at most 0.2 for the second.

QRSP and MSYV cannot be ordered by “one-hybrid fitness for binding parS DNA” value: at most 0.2 for the first, at most 0.2 for the second.

FGRC and MPTR cannot be ordered by “one-hybrid fitness for binding parS DNA” value: at most 0.2 for the first, at most 0.2 for the second.

HLPD and QSMN cannot be ordered by “one-hybrid fitness for binding parS DNA” value: at most 0.2 for the first, at most 0.2 for the second.

TYRK and RDRV cannot be ordered by “one-hybrid fitness for binding parS DNA” value: at most 0.2 for the first, at most 0.2 for the second.

LAQV and THHM cannot be ordered by “one-hybrid fitness for binding parS DNA” value: at most 0.2 for the first, at most 0.2 for the second.

LCDV and KFNR cannot be ordered by “one-hybrid fitness for binding parS DNA” value: at most 0.2 for the first, at most 0.2 for the second.

QWAK and CRSQ cannot be ordered by “one-hybrid fitness for binding parS DNA” value: at most 0.2 for the first, at most 0.2 for the second.

VQTI and KKLN cannot be ordered by “one-hybrid fitness for binding parS DNA” value: at most 0.2 for the first, at most 0.2 for the second.

NDRD and SSET cannot be ordered by “one-hybrid fitness for binding parS DNA” value: at most 0.2 for the first, at most 0.2 for the second.

LLVY and MACT cannot be ordered by “one-hybrid fitness for binding parS DNA” value: at most 0.2 for the first, at most 0.2 for the second.

GSWY and CLKH cannot be ordered by “one-hybrid fitness for binding parS DNA” value: at most 0.2 for the first, at most 0.2 for the second.

EYAP and HLCR cannot be ordered by “one-hybrid fitness for binding parS DNA” value: at most 0.2 for the first, at most 0.2 for the second.

For NETL, the “one-hybrid fitness for binding parS DNA” value was at most 0.2.
